# Data from PubChem BioAssay AID624296 (National Center for Advancing Translational Sciences (NCATS), 2012).
# In all, about 350,000 compounds went through this assay and about 9,900 (2.8%) were called active. Inconclusive means that the source gave no clear call. Such entries were picked first, then a sample of the others. Calls follow the shape of the dose curve; as a rule, active = well fitted activation curve with a large enough effect; inconclusive = small, poorly fitted or top-dose-only effect; inactive = no such curve, though single readings can be large or run the other way. No potency is given beside an inconclusive call; the fits are too rough.
# Experiment: A quantitative high throughput screen for small molecules that induce DNA re-replication in MCF 10a normal breast cells. Also: nearly all actives have a fitted effect of over 50% in size. As to activity, positive = re-replication: % of control where 0% means no effect.
# Conditions: MCF 10A DNA re-replication, Hoechst nuclear intensity, 48 h; activity, positive = re-replication: at 46.1 µM (top of the series)
# Potency is read from the fitted curve at half-maximal effect; tags tell the direction and shape of the fitted curve.
SMILES,Potency,"activity, positive = re-replication"
COc1cc2c(cc1N/C=C(\C#N)c1nc(-c3ccc(F)cc3)cs1)oc1ccccc12,"inconclusive [activator, partial curve]",
Cc1cccc(NS(=O)(=O)c2cccc(C(=O)NCCCN3CCCC3=O)c2)c1,,inactive: 5.28%
C/C(=N\NC(=O)c1nn(C)c(C)c1Br)c1ccc(NC(=O)C2CCCC2)cc1,,inactive: 7.45%
CCN(CC(=O)Nc1ccc(NC(C)=O)cc1)C(=O)CCCc1c[nH]c2ccccc12,,inactive: -5.34%
CCn1c(C)c(C)c2cc(C(=O)N3CCN(c4cccc(C)c4C)CC3)ccc21,"inconclusive [activator, single point]",
CC#CCCC(=O)N1C=Cc2ccccc2C1C#N (centres undefined),"inconclusive [activator, single point]",
COc1cccc(NC(=S)N(CCc2nc3cc(C)c(C)cc3[nH]2)Cc2cccnc2)c1,"inconclusive [activator, single point]",
COc1cccc(-c2nn(C)c3sc(C(=O)N4CCN(c5ccccc5)CC4)cc23)c1,"inconclusive [activator, single point]",
Cc1cc(OCC(=O)OCC(=O)c2ccc[nH]2)ccc1Cl,,inactive: 2.91%
CCOC(=O)Cc1csc(NC(=O)CSc2nnc(-n3nc(C)cc3C)c3ccccc23)n1,,inactive: 18.9%
COc1ccc2nc(N3CCCC3)c(C#N)cc2c1,"inconclusive [activator, partial curve]",
COc1ccc2c(c1)c(C(C)=O)c(C)n2-c1ccccc1OC,"inconclusive [activator, single point]",
O=C(CSC1=N/C(=C/c2ccc(Cl)c(Cl)c2)C(=O)N1c1ccccc1F)NC1CC1,active: 14.6 µM,
COc1ccc(/C=N/NC(=O)c2[nH]c3ccc(Br)cc3c2-c2ccccc2)cc1,active: 0.206 µM,
CCO/C=N/Nc1nc(C(F)(F)F)nc2c1cnn2Cc1ccccc1,active: 18.4 µM,
Cc1ccsc1/C=N/n1c(-c2ccccc2)n[nH]c1=S,,inactive: 13.9%
CCCCCCSc1cc(-c2nc3cnccn3c2NCCCC)ccc1OC,active: 14.6 µM,
S=C1NCCN1CC1CCN(CCC23CC4CC(CC(C4)C2)C3)CC1,"inconclusive [activator, single point]",
CN(Cc1ccccc1)C(=O)c1cccc(NC(=O)Cc2ccc(NC(=O)C3CCN(C(=O)C4CC4)CC3)cc2)c1,,inactive: -76.6%
Cc1cccc(NC(=O)CSc2nc3ccccc3nc2N2CCCC2)c1,active: 20.6 µM,
CCC(C(=O)OC(C)C(=O)Nc1ccc(Cl)cn1)c1ccccc1 (centres undefined),,inactive: 1.66%
CCOC(=O)c1ccc(NC(=O)NNS(=O)(=O)c2cc(OC)ccc2OC)cc1,,inactive: -5.8%
CSc1ccc(-c2nnn(CC(=O)NCc3ccccc3)n2)cc1,"inconclusive [activator, full curve]",
CC(=O)Nc1ccc2oc(C)nc2c1,"inconclusive [activator, partial curve, poor fit]",
CC(=O)c1sc(N/N=C\c2c(O)ccc3ccccc23)nc1C,"inconclusive [activator, single point]",

SMILES,Potency,"activity, positive = re-replication"
CCOc1ccc(/C=N/NC(=O)COc2ccccc2-c2ccccc2)cc1,"inconclusive [activator, partial curve]",
Cc1ccc(-c2cc(C(F)F)n3ncc(C(=O)N4CCCCC4c4cccnc4)c3n2)cc1 (centres undefined),"inconclusive [activator, partial curve, poor fit]",
CN(CC(=O)NC(c1ccccc1)c1ccccc1)Cc1nc2ccccc2c(=O)[nH]1,"inconclusive [activator, single point]",
O=C(COCc1ccccc1)N[C@@H]1c2ccccc2CC[C@@H]1OCc1ccccc1,"inconclusive [activator, full curve, poor fit]",
O=C(O)c1ccccc1NS(=O)(=O)c1cccc(-n2sc3ccccc3c2=O)c1,active: 14.6 µM,
O=CN/N=C/c1c(O)ccc2ccccc12,,inactive: 1.39%
N#C/C(=C/c1ccc(N2CCCCC2)o1)c1cccc(F)c1,active: 7.31 µM,
O=c1nc2ccccc2c(NS(=O)(=O)c2ccccc2)n1-c1ccccc1,"inconclusive [activator, single point]",
Cc1cc(NC(=O)CCC(=O)N(CC(=O)NCC2CCCO2)c2ccc(F)c(Cl)c2)no1 (centres undefined),,inactive: -9.6%
CCOc1cc(N2CCOCC2)c(OCC)cc1NC(=O)C(NC(=O)c1ccco1)C(C)C (centres undefined),,inactive: 2.69%
O=CN1CCCN(Cc2nc(-c3cccc(Cl)c3)no2)CC1,,inactive: -6.48%
C=CCc1cccc(CNc2nc3ccccc3n2CC)c1O,"inconclusive [activator, single point]",
CCc1ccc(/C=C2/SC(=S)N(CCC(=O)Nc3cccnc3)C2=O)cc1,,inactive: -1.22%
Nc1ccc2nc(SCC(=O)c3ccccc3)sc2c1,,inactive: 3.05%
Clc1cccc(Cl)c1CNc1ccc(N2CCCC2)cc1,,inactive: -19.7%
CC1CC(C)CN(CCCNC(=O)c2ccc(CNS(=O)(=O)c3ccc(F)cc3)cc2)C1 (centres undefined),,inactive: -3.62%
COc1cc(CC(=O)Nc2nccs2)cc(OC)c1OC,,inactive: -0.028%
Cc1ccc(NC(=O)c2cnc(SCC(=O)NCC3CCCO3)n(C)c2=O)cc1C (centres undefined),"inconclusive [activator, single point]",
O=C(c1ccccc1)c1ccc(-n2cnnc2)c([N+](=O)[O-])c1,,inactive: 0.679%
Cc1ccc2cc(CN(C(=O)c3cccs3)c3ccccc3)c(=O)[nH]c2c1,"inconclusive [activator, single point]",
COc1cc(CN(C)Cc2cc(=O)oc3cc(C)c(Cl)cc23)ccc1OC(F)F,"inconclusive [activator, single point]",
CCN(C(=O)COC(=O)C1CCN(S(=O)(=O)c2c(Cl)cccc2Cl)CC1)C1CCCCC1,"inconclusive [activator, single point]",
Cc1ccccc1S(=O)(=O)N1C[C@H]2CON(C)[C@H]2C[C@H]1c1cccc(-c2ccc(C#N)cc2)c1,,inactive: -2.94%
CNC1=C(N(C(C)=O)c2ccc(Br)cc2)C(=O)c2ccccc2C1=O,active: 0.58 µM,
Cc1ccc(S(=O)(=O)NCC(=O)N2CCN(c3ccc(F)cc3)CC2)cc1,"inconclusive [activator, single point]",

SMILES,Potency,"activity, positive = re-replication"
O=[N+]([O-])c1cc(CN2CCN(c3cccc(C(F)(F)F)c3)CC2)c2cccnc2c1O,,inactive: 8.04%
COc1cc(OC)cc(C(=O)N[C@H](C(=O)Nc2nc3c(s2)CCCC3)C(C)C)c1,"inconclusive [activator, single point]",
O=C(Cc1ccc2c(c1)OCCO2)c1c(O)cc(O)cc1O,,inactive: 8.51%
O=S(=O)(c1cc(C(F)(F)F)ccc1Cl)N1CCN(c2ncnc3ccccc23)CC1,"inconclusive [activator, single point]",
O=C(COC(=O)c1ccc[n+]([O-])c1)Nc1cc([N+](=O)[O-])ccc1Cl,,inactive: -0.678%
Cc1ccc(C)n1-c1ccc(C(=O)NCc2ccncc2)cc1,"inconclusive [activator, single point]",
COc1cccc2c(C)c(C(=O)O)[nH]c12,"inconclusive [activator, partial curve, poor fit]",
CCCCOc1ccc(-c2n[nH]c(=S)n2Cc2ccccc2)cc1,"inconclusive [activator, single point]",
CN(C)C(=O)c1cc2cc([N+](=O)[O-])ccc2s1,"inconclusive [activator, single point]",
Cc1cc2nc(C3CCN(CC4COc5ccccc5O4)CC3)[nH]c2cc1C (centres undefined),"inconclusive [activator, single point]",
CCC1CCCCN1C(=O)c1cccc(S(=O)(=O)Nc2cc(C(F)(F)F)ccc2Cl)c1 (centres undefined),"inconclusive [activator, partial curve, poor fit]",
Cc1ccc(-c2nc(CSCC(=O)N3CCN(c4ccccn4)CC3)c(C)o2)cc1,,inactive: 9.79%
Cc1cc(C)c2nc(-c3ccccn3)cc(C(=O)NCc3ccco3)c2c1,"inconclusive [activator, single point]",
C=CC[n+]1c(-c2ccc(Cl)cc2Cl)csc1Nc1c(C)n(C)n(-c2ccccc2)c1=O,"inconclusive [activator, partial curve, poor fit]",
COCCOCC(O)CN1CCN(c2ccc(C)cc2)CC1 (centres undefined),,inactive: -7.86%
CCOC(=O)N/N=C/c1ccc(F)cc1F,,inactive: -3.85%
CCCCC(=O)NC(=S)Nc1ccccc1C(=O)Nc1ccccc1,,inactive: 2.16%
COC(=O)c1cc(CNC(=O)c2sccc2-c2ccccc2)ccc1OC,,inactive: -7.12%
COc1cccc(-c2nc(NC(C)(C)C)c3ccccc3n2)c1O,"inconclusive [activator, single point]",
COc1ccccc1NS(=O)(=O)c1cccc(C(=O)NC2CCN(Cc3ccccc3)CC2)c1,"inconclusive [activator, full curve, poor fit]",
Cc1cccc(NC(=S)N/N=C/c2ccc([N+](=O)[O-])s2)c1,"inconclusive [activator, single point]",
COc1ccc(N(C(=O)Cn2nnc3ccccc32)C2(C(=O)NC3CCCC3)CCCCC2)cc1,,inactive: -4.46%
COc1cc2c(C)nc3onc(-c4ccccc4)c3c2cc1OC,"inconclusive [activator, partial curve, poor fit]",
CCC(CC)c1nnc(NC(=O)CCCN2C(=O)c3ccccc3C2=O)s1,"inconclusive [activator, single point]",
